According to the supplement of paper PMC7826260:
The list shows a part of the results. The data describe in vitro nicking of single-stranded DNA by Rep domains for 1 h at 37 °C with 3 µM enzyme; only the middle of the 90-letter strands is printed. A value is the log2 ratio of uncut reads to the pool without enzyme; strong cutting gives strongly negative numbers. There is no active / inactive call. Reads are scaled to the total, so uncut sequences can rise above 0 when many others are cut.

Columns and labels:
Test in all cases: uncleaved DNA left, log2 of reads against the no-enzyme library (log2 ratio); higher = less cleavage (more negative = more Rep cleavage of the k-mer); sequences stand for … in CTCGTCCG…ACCGGAGA
[1] = system: T1, Rep nickase domain of Muscovy duck circovirus
T1 sequence (residues 1-111, tag not shown): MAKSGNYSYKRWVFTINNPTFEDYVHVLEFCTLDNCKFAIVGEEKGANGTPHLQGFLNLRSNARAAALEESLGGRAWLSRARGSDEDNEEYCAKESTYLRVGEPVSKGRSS
Method: (§1)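 A pool of 90-nt single-stranded DNAs with seven random bases just before the constant AC of the nick site (name = the seven bases) was cut by 3 µM recombinant His6-SUMO-tagged Rep nickase domain (300 nM DNA, 50 mM HEPES pH 8.0, 50 mM NaCl, 1 mM MnCl2, 1 h, 37 °C, three replicates). Uncut DNA was amplified and sequenced.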

[2] = system: T2, Rep nickase domain of banana bunchy top virus
T2 sequence (residues 1-94, tag not shown): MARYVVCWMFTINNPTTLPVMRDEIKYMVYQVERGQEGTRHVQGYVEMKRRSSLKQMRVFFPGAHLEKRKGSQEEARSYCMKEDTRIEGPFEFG
Method: as §1

[3] = system: T3, Rep nickase domain of cabbage leaf curl virus
T3 sequence (residues 1-116, tag not shown): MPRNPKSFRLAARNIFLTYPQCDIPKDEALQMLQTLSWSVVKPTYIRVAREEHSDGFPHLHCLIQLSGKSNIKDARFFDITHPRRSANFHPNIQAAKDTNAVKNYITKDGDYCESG
Method: as §1

[4] = system: T4, Rep nickase domain of chickpea chlorotic dwarf virus
T4 sequence (residues 1-124, tag not shown): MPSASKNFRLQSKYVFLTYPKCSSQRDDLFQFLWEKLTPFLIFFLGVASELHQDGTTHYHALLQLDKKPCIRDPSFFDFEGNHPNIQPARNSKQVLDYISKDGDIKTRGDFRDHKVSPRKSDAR
Method: as §1

[5] = system: T5, Rep nickase domain of faba bean necrotic yellows virus
T5 sequence (residues 1-98, tag not shown): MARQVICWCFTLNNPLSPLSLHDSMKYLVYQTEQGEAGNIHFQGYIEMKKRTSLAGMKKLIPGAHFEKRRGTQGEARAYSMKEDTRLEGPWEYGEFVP
Method: as §1

[6] = system: T6, Rep nickase domain of maize striate mosaic virus
T6 sequence (residues 1-117, tag not shown): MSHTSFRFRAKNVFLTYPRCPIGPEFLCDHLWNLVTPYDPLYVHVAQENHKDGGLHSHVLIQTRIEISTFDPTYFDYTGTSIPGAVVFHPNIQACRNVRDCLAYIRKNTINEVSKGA
Method: as §1

[7] = system: T7, Rep nickase domain of porcine circovirus 2
T7 sequence (residues 2-116, tag not shown): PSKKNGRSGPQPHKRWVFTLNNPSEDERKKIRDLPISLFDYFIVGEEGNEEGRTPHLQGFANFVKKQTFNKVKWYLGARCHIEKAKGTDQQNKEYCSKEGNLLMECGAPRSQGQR
Method: as §1

[8] = system: T8, Rep nickase domain of tomato golden mosaic virus
T8 sequence (residues 1-124, tag not shown): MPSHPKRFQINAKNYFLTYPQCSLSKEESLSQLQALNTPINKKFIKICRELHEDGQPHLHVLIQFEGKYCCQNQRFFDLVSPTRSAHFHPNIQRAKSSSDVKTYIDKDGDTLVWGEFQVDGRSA
Method: as §1

[9] = system: T9, Rep nickase domain of tomato yellow leaf curl virus
T9 sequence (residues 1-136, tag not shown): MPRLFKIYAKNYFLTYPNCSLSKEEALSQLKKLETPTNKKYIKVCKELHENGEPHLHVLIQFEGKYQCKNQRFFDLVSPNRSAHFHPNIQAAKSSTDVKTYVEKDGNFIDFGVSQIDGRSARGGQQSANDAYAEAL
Method: as §1

[10] = system: T10, Rep nickase domain of wheat dwarf virus
T10 sequence (residues 1-137, tag not shown): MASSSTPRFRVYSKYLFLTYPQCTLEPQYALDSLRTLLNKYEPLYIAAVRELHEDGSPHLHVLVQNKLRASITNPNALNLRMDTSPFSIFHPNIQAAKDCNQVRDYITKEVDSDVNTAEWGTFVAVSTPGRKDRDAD
Method: as §1

Sequence	uncleaved DNA left (log2) [1]	uncleaved DNA left (log2) [2]	uncleaved DNA left (log2) [3]	uncleaved DNA left (log2) [4]	uncleaved DNA left (log2) [5]	uncleaved DNA left (log2) [6]	uncleaved DNA left (log2) [7]	uncleaved DNA left (log2) [8]	uncleaved DNA left (log2) [9]	uncleaved DNA left (log2) [10]
TAACTGG	0.0552	0.0415	0.0119	0.284	0.0504	0.361	0.124	0.0354	0.0539	0.0775
GGGGGCC	0.0121	0.0591	0.744	1.6	0.0152	2.02	0.229	0.0497	0.0405	0.0783
AATACCC	-0.1	-0.0406	0.0367	-1.05	0.0196	-0.239	-0.862	-0.083	-0.13	-0.0453
TAAACTC	-0.023	-0.0497	-3.58	-3.15	-0.0108	-1.94	-0.0428	-2.24	-0.14	-3.36
AGAGAAA	0.0526	-0.0991	0.124	0.526	-0.0186	0.324	-0.139	0.0179	-0.0868	-0.0619
AGATCCC	0.0137	0.126	0.591	1.48	0.0932	2.08	0.0415	-0.0682	0.0963	0.149
GCAGTTT	-0.00164	-0.169	0.0291	-1.33	-0.0923	-0.158	-0.0991	-0.0378	-0.0555	-0.0495
TCTAGGA	0.125	-0.0129	0.116	0.354	0.0873	-0.204	0.148	0.0065	-0.0564	0.0481
GCCTACG	0.0138	-0.00817	-0.732	-0.488	-0.127	-0.793	0.0861	-0.0166	-0.084	-0.172
GTGTGAC	0.0337	0.162	0.587	1.3	-0.00909	2.06	0.193	0.268	0.149	0.216
TGTGAGT	0.0593	-0.0319	-0.0543	-0.42	0.00206	-0.759	-0.0827	-0.0724	0.0216	-0.0164
ACAACCC	-0.255	-0.116	-0.17	-0.576	-0.118	-0.618	-0.557	-0.0826	-0.106	-0.14
CCTACCG	-0.247	-0.183	-1.02	-1.98	-0.185	-1.16	-0.148	-0.239	-0.136	-0.395
ACATGTT	-3.55	-0.323	-1.46	-2.92	0.117	-1.04	-3.33	-0.295	-0.0688	-0.4
CCAAGGG	-0.159	0.0347	0.0117	0.561	-0.00243	-0.106	0.121	-0.0289	-0.0462	0.0469
TTTTTGA	-0.0467	-0.088	0.028	-0.0908	-0.00958	-0.543	-0.0626	-0.0208	-0.0155	0.0121
TTTCTGA	0.162	0.102	0.249	0.23	0.0454	0.148	0.0743	0.01	0.0516	0.0853
TTCGGGC	0.0514	-0.0127	0.276	0.211	-0.0346	0.0685	0.103	-0.0857	-0.0185	-0.0243
ACCACCC	-0.225	-0.0642	-0.187	-0.531	-0.081	-0.645	-0.655	-0.119	-0.247	-0.212
CCGTCGG	0.00129	0.0494	0.443	1.26	0.00722	1.49	0.114	0.193	-0.0312	0.00868

Sequence	uncleaved DNA left (log2) [1]	uncleaved DNA left (log2) [2]	uncleaved DNA left (log2) [3]	uncleaved DNA left (log2) [4]	uncleaved DNA left (log2) [5]	uncleaved DNA left (log2) [6]	uncleaved DNA left (log2) [7]	uncleaved DNA left (log2) [8]	uncleaved DNA left (log2) [9]	uncleaved DNA left (log2) [10]
TTACAAT	0.116	-0.0465	-0.256	-2.53	-0.0387	-0.358	-0.182	-0.107	-0.0479	-0.0197
CCGGCCC	0.0435	-0.089	0.133	0.135	-0.061	0.265	0.0413	-0.06	-0.202	-0.201
CTAAACC	0.0186	0.0761	0.0632	-0.95	0.123	-0.585	-0.306	0.0479	0.0937	0.15
CAGAAGT	0.192	0.00629	0.0465	-0.351	0.0731	-0.754	-2.9	0.206	0.193	0.146
GGGTAAG	-0.0182	0.164	0.721	1.7	0.0357	1.8	0.228	0.0317	0.0216	0.0685
TTCAGCA	-0.0427	-0.0544	-0.191	-0.924	0.117	-0.936	-0.279	-0.0655	0.0537	-0.112
GCATGCC	0.0218	0.0274	-0.216	-0.0917	0.0175	-0.718	0.162	-0.022	0.0844	-0.0513
TTGGTGG	0.238	0.114	0.237	0.363	0.222	0.0753	0.31	0.148	0.0613	0.12
GGTTAGG	0.102	0.0286	0.402	1.17	0.00288	1.46	0.184	0.184	0.0532	0.109
TCTTGTG	0.0216	0.0779	-0.671	0.0536	0.131	-0.817	0.202	-0.0174	0.0528	-0.0257
TAGAATA	0.0828	-0.0555	-0.369	-1.95	0.0504	-0.159	-2.8	0.013	0.0144	0.0359
GTTTATG	0.208	0.129	0.27	0.603	0.191	0.396	0.246	0.217	0.19	0.0967
ATCAGAC	-0.0563	-0.0902	0.0403	0.239	-0.0274	-0.564	0.158	0.00361	-0.101	-0.105
TGTGGGT	0.00717	0.0513	0.272	0.801	-0.116	1.09	0.0318	-0.0467	-0.116	0.0433
TCGAGGC	0.00513	0.015	0.16	0.27	-0.085	-0.301	0.0251	0.0249	0.0119	-0.126
TTAGGCG	-0.0396	-0.0464	-0.79	0.268	0.0768	-0.877	0.224	0.0408	-0.0123	-0.105
GCGGTTA	0.149	0.0811	0.344	0.629	0.1	1.29	-0.0202	0.22	0.0547	0.0691
TTAGAGT	0.0878	0.0289	0.0136	-0.493	0.048	-0.567	-0.0643	-0.103	0.0749	0.0512
TGACGTC	-0.015	0.0191	0.225	0.36	0.0329	0.642	0.00258	0.0015	0.00164	0.0613
GGCGGTA	0.105	0.00838	0.277	0.626	0.0845	0.988	-0.226	0.121	-0.0681	-0.038

Sequence	uncleaved DNA left (log2) [1]	uncleaved DNA left (log2) [2]	uncleaved DNA left (log2) [3]	uncleaved DNA left (log2) [4]	uncleaved DNA left (log2) [5]	uncleaved DNA left (log2) [6]	uncleaved DNA left (log2) [7]	uncleaved DNA left (log2) [8]	uncleaved DNA left (log2) [9]	uncleaved DNA left (log2) [10]
ACGAACT	-0.0664	-0.0577	-0.447	-2.53	-0.145	-0.451	-0.149	-0.0567	-0.328	-0.069
GTGTGTC	0.0471	0.0612	0.267	0.832	-0.0715	1.83	0.00874	0.000272	-0.04	0.0513
CCCTAGG	0.128	0.235	0.636	1.2	0.23	1.12	0.0873	0.267	0.125	0.233
ATACGGA	0.155	0.0623	0.212	0.393	0.0477	0.106	0.146	0.108	-0.0487	0.0482
TCTACAG	-0.0641	-0.00464	-0.747	-2.04	0.0381	-1.03	0.0364	-0.0294	-0.00973	-0.0701
ACATCCT	-0.349	-0.00243	-0.235	-2.13	0.0395	-0.27	-0.548	-0.0375	-0.153	0.0551
TGGCACG	0.0662	0.0508	-0.476	-0.488	0.0236	-0.757	0.132	-0.0469	-0.0628	-0.147
ACTTCAG	0.0958	0.0486	-0.852	-0.328	0.115	-1.15	0.237	0.06	0.109	-0.038
GAGTTGG	-0.0106	-0.0634	-0.223	-0.24	-0.0433	-0.632	-0.238	0.0595	-0.0554	-0.0499
CAGAGCC	-0.0897	0.00266	-0.158	-0.0916	-0.146	-0.723	-0.0886	-0.0963	-0.00512	-0.0527
ATCTATC	0.0995	-0.0307	0.0483	0.0344	-0.0549	-0.575	0.0108	0.0474	0.0763	0.0843
CCTTTGT	-0.0868	0.0824	-0.254	-0.829	0.22	-0.994	-0.437	-0.0738	0.0625	-0.0434
TCAGATT	0.00255	-0.224	-0.158	-2.08	-0.0256	0.123	-0.108	0.0379	-0.101	-0.0746
TATTGTT	-3.89	-3.71	-3.52	-3.16	-2.7	-2.39	-4.44	-3.04	0.0258	-3.21
GAGTGGC	-0.00775	0.0397	0.201	0.708	-0.058	0.489	0.0673	0.0236	0.00266	-0.0398
TTAGGAC	-0.187	0.0871	0.313	1.21	-0.0292	1.16	0.202	0.167	-0.0414	0.14
ACCTTCG	0.0697	0.103	-0.365	1.11	0.0579	0.261	0.21	-0.0487	0.281	0.154
TAAGGAG	0.0697	0.0515	0.078	1.03	0.151	0.542	0.197	0.133	0.0115	0.0714
TTCGGCT	-0.00398	-0.0316	-0.301	-0.916	-0.0888	-0.668	0.00452	-0.0875	-0.0923	-0.145
TCTCCGT	-0.026	-0.0993	-0.0474	-0.174	-0.0994	0.274	-0.0465	-0.113	-0.136	-0.0756
